# Assay results from the supplement of paper PMC11417369.
# ± gives the standard deviation of the averaged measurements. The list shows a part of the results.
# Test system: PfAP2-G AP2 domain (GST-tagged)
# Test: gcPBM binding intensity (ln(normalized median fluorescence intensity)); higher = stronger DNA binding
# Outline: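 The highest Masliner-normalised natural-log median intensity across replicate spots of either probe orientation is reported as binding intensity. GST-tagged P. falciparum DNA-binding domains expressed in E. coli were applied for 1 h to an Agilent 4 × 180k array of primer-extended double-stranded 36-bp intergenic genomic probes plus negative controls, and bound protein was detected with Alexa488 anti-GST antibody and scanned at 488 nm.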
row,Sequence,gcPBM binding intensity (ln)
1,TTTTCCCTCTTATTCACACAAAAAAAATAAAATAAA [CACACA_site4656],9.99 ± 0.23
2,ACACTAACATCATATCGTACATTTGTTAATTTATAA [XGTACX_site8654],10.8 ± 0.48
3,TATTTATTTTTTTTTGTGCACTTAATATAATCTTAC,10.4 ± 0.21
4,TCTTTTAAAAAAATTTGTACATATTTTTTGTATTAT [XGTACX_site67],11.1 ± 0.7
5,TTCTTAATATTGCATGCACACTATATAATAATTGAA [CACACA_site4720],10 ± 0.42
6,TTTTTATTTATATGATACTTATATATATATATATAT [CACACA_negctrl_site462],10.2 ± 0.35
7,GATTGATTATATGTGTGTACTTATATGTTAAAAAAA [XGTACX_site4784],11.5 ± 0.89
8,TATGAATATCTATACACACACATATATATACCCACT [CACACA_site4963],10.3 ± 0.26
9,TGTTCTTTGTTCAGCGCATGTAAAATAAAATAAAAT [TGCATGCA_site629],10.4 ± 0.7
10,TTTTTTTTTGAATACAGTACACAAGTGTTAAGTTTA [XGTACX_site7069],11.2 ± 0.84
11,AGGAGGATGCATATGGCACACATTATGAAACTGTCG [CACACA_site299],10.05 ± 0.028
12,GAAAGAATAAAATTTACACACATATAAATATACATA [CACACA_site7125],9.78 ± 0.057
13,TATTTGAAAACATAGGTGCACATTATTTTATAATCT [GTGCAC_site9947],10.3 ± 0.3
14,AAAGGTGTCATATATGCACACAAAAGTAACACGCAC [CACACA_site8051],10.5 ± 0.18
15,TTTATTCTTGAGTATTGTACATATGTGTTTGTATAT [XGTACX_site5706],11 ± 0.71
16,TGTAAGCACATACAAACACACAACATTATTTTTATC [CACACA_site2186],10 ± 0.11
17,TAGTATAATATGAACACACACACACGCACAAAAAAA [CACACA_site7035],10.4 ± 0.2
18,AAAGGAAAAATCCAAGTGCATTATTATTTTCACAAA [GTGCAC_site9995],9.835 ± 0.064
19,ATCGTTATATAAAAATGTACTTATAAATTGTATACA [XGTACX_site6664],11.2 ± 0.83

row,Sequence,gcPBM binding intensity (ln)
1,CAACATTTGATAAACACACAGAAGTATAAATATATA [CACACA_site2365],10.24 ± 0.035
2,ATTTCTTTTTTATTGAGTACATATGACCATGTTCAA [XGTACX_site5365],11.5 ± 0.86
3,AGTAATAAATAATTTACACACATATTATATCATCAC [CACACA_site1890],9.985 ± 0.049
4,CATTTTAAAGAAAATACACACAAAAATAGATATATA [CACACA_site6773],10.18 ± 0.092
5,TTTTTTTTTTTTTGATGTACAATTAATATTATAAAA [XGTACX_site6969],11.2 ± 1
6,AAAAATATATAATAAAGTACACATAAATGAATAAAT [XGTACX_site329],11.5 ± 0.81
7,GAAAAAAATGAAATTAGTACTTATCTTAAATTTTTA [XGTACX_site1018],10.8 ± 0.47
8,AATAATTAAATAAGAGTGCATGAAACAGGAAATTTC,10.16 ± 0.085
9,TAATAAAAAATATATACACACAAATAAATAAATAAA [CACACA_site4037],9.77 ± 0.071
10,AATAGTCGTGTGCATACACACCTTAACTATAATATA [CACACA_site6636],10.1 ± 0.2
11,AGGTGCAAAAATAAAACATGCAAAAATAAAAATGAA [TGCATGCA_site502],10.07 ± 0.028
12,TATATATGTTTTTATGTACACACTTTTAACCTAAGA [CACACA_site1149],11.6 ± 0.99
13,ATGTCTAATTTTGATGCACACTTTTGTGCAATTAAA [CACACA_site5589],10.2 ± 0.3
14,CGCATGCAATGTTAATGTACATATATATATATATGT [XGTACX_site3316],11.7 ± 0.64
15,AAGAAATAAAGCAAAACATGCACTCGAAAATGTTTT [TGCATGCA_site1014],10.01 ± 0.092
16,TATTGTTAAAATGAATAATTAAAACAGTAATGAATA [XGTACX_negctrl_site170],9.72 ± 0.13
17,TTAGCAACTATTACTACACACATTTTTATATAACTT [CACACA_site6762],10.06 ± 0.014
18,TATTACATACCTTATTGTACAAATTATATATTAAAG [XGTACX_site7334],10.8 ± 0.39
19,TATTATATTATGTGATGTACATATTTATATAGGCCC [XGTACX_site4746],11.2 ± 0.8

row,Sequence,gcPBM binding intensity (ln)
1,ATTTATTGACTATTTACACACATATTTATTAAAATA [CACACA_site4980],10.2 ± 0.17
2,TACGCTCCCAGACACACACACACACCGATATAATAT [CACACA_site8098],10.3 ± 0.22
3,ACAGTATCTGGTAGCTGTACGAGTCGTAGAGAGTAG [XGTACX_site2041],11.2 ± 0.71
4,ATTCAGTTATATAATACACACATATATTGACATTAT [CACACA_site2723],10.1 ± 0.13
5,TATTAAACTAAATGTAGTACATACACAAAAGAAACC [XGTACX_site606],11.6 ± 0.98
6,AAATTGAAATATTCCTGTACACATTTTGAAAACTTA [XGTACX_site6101],11.5 ± 0.8
7,AAAATATAGTAACACATACACACATATATATTTATA [CACACA_site2504],10 ± 0.24
8,TTGTTATGTTTTATTTGTACGTAGGTTTCTATCAAA [XGTACX_site7636],11.3 ± 0.83
9,TCTTTTTGCATGTGTGTGCGCACAAAATACACAAAA [GTGCAC_site9718],11.1 ± 0.74
10,TGTTTGAATATAATCACACATTTATATAAAAAGTTA [CACACA_site5237],9.665 ± 0.007
11,TTATGAAAATATTTTTTTCGTTTGATGTATATGTTT [CACACA_negctrl_site1556],9.78 ± 0.15
12,TATAAACATAAAACCAGTACATATATATTTTTCTTC [XGTACX_site212],10.9 ± 0.69
13,ATATTTAATTCATCATGTACACAAATAAGAAACAAA [XGTACX_site8076],11.4 ± 0.78
14,TGAAAATGGGAACCGTGTACAGGGCAGTTATAGGGG [XGTACX_site2950],11.5 ± 0.82
15,AAAAAATATAAATATGTAAAAAGAGAAAAAAAAAAG [GTGCAC_negctrl_site9],9.77 ± 0.19
16,AACAACATTTGATAAACACACAGAAGTATAAATATA [CACACA_site5327],10 ± 0.014
17,TACTTATTAGACTATTGTACATACATTATTAATATT [XGTACX_site7849],10.9 ± 0.35
18,TGATAACCAAAAAGGGGTACATACACAAAAAAATAC [XGTACX_site1254],11.7 ± 0.91
19,TAAAAAATTAAGCAACGTACAAATGAAAAGTATAAT [XGTACX_site1058],11 ± 0.5
